The results in this text go back to patent publication US20230312722A1 (NONA BIOSCIENCES SUZHOU, published 2023).

In this experiment the target is T1, human B7H4 on the cell surface (human, UniProt Q7Z7D3 25-282).
T1 construct: whole, on cells; also called CHOK1/hu B7H4; B7H4 on SK-BR-3
T1 sequence (looked up): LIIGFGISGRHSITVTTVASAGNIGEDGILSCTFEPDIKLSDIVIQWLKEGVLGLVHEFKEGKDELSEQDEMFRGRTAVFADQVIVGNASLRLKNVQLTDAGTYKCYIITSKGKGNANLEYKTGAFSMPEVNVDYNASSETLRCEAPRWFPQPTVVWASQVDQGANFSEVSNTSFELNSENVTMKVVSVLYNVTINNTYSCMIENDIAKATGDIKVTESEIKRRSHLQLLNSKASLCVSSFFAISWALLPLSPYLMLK
The experiment can be described thus: FACS on SK-BR-3 cells. Here is the method: SK-BR-3 cells were digested. T cells were isolated using the human T cell isolation kit (Miltenyi, #130-096-535) as described in the method of the instruction, and resuspended with PBS containing 2% BSA. The cell density was adjusted to 1×10⁶ cells/mL. The cells were seeded in a 96-well V-bottom plate (Corning, #3894) at 100 μL/well, followed by the addition of test antibodies diluted in a 3-fold gradient at a concentration that was 2 times the final concentration, each at 100 μL/well. The cells were incubated at 4° C. for 2 h away from light. Thereafter, the cells in each well were rinsed twice with 100 μL of pre-cooled PBS containing 2% BSA, and centrifuged at 500 g at 4° C. for 5 min, and then the supernatant was discarded. Then each well was added with 100 μL of fluorescent secondary antibody (Alexa Fluor 488-conjugated AffiniPure Goat Anti-Human IgG, Fcγ Fragment Specific, Jackson, #109-545-098, diluted in a 1:500 ratio), and the plate was incubated away from light at 4° C. for 1 h. The cells in each well were washed twice with 100 μL of pre-cooled PBS containing 2% BSA, and centrifuged at 500 g at 4° C. for 5 minutes, and then the supernatant was discarded. Finally, the cells in each well were resuspended with 200 μL of pre-cooled PBS containing 2% BSA, and the fluorescence signal values were read using an ACEA Novocyte3000 flow cytometer.

B1: PR003366 (Fc fusion)
scFv-Fc chain: EIVMTQSPASLSVSPGERATLSCRASQSVSSNLAWYQQKPGQAPRLLIYGASTRATGIPARVSGGGSGTEFTLTISSLQSEDFAVYYCQQYKNWPFTFGPGTKLEIKGGGGSGGGGSGGGGSGGGGSQVQLVQSGAEVKKPGSSMRVSCKASEDTFSSYAISWVRQAPGQGLEWMGGTAPIFGTTNYAQKFQGRVTITADKSTSTAYMELSSLRSEDTAVYYCARGGPYFDYWGQGTLVTVSSGGGAS[human IgG1 Fc not written out]
notes: also called PR003366 (αB7H4 scFv-Fc)
As usually defined, the EC50 is the concentration giving half of the maximal effect. Turning to B1, the response was half-maximal at 26.2 nM (EC50) and the “Maximum MFI” value came out at 246000.
